Assay results from the supplement of paper PMC11417369.
± gives the standard deviation of the averaged measurements. The list shows a part of the results.

Tested on: PfAP2-I AP2 domain 3 (GST-tagged)
Experiment: gcPBM binding intensity (ln(normalized median fluorescence intensity)); higher = stronger DNA binding
Summary of the method: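 An Agilent 4 × 180k array carrying primer-extended double-stranded 36-bp intergenic genomic probes and negative controls received GST-tagged P. falciparum DNA-binding domains expressed in E. coli, about 25 μg on average, for 1 h. The binding buffer contained 1× PBS, 1% milk, 0.2 mg/ml BSA, 0.5% salmon testes DNA and 0.03% Triton X-100. Binding intensity is the top Masliner-normalised natural-log median intensity across replicate spots of either probe orientation, read after Alexa488 anti-GST antibody staining and a 488 nm scan.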

Sequence | gcPBM binding intensity (ln)
ATATATTTTGTATGTAGTACAATTTTATAATCATAT [XGTACX_site8373] | 7.88 ± 0.18
TCAATTTGGAACGGTATGCACTAATTTTATATTTTT | 9.02 ± 0.19
TATTACAAATATGGCACACATATATATATATATATT [CACACA_site3268] | 8.69 ± 0.2
AATAATGAATACACATGTACAAAAATTTTTCTTACT [XGTACX_site1962] | 7.79 ± 0.62
AAAAAAAACAGACACACACACAAATATATAAAAATA [CACACA_site1172] | 7.77 ± 0.48
TTTTTGAAATAATGAAACAGCAAAAAAACAAAAATA [CACACA_negctrl_site221] | 8.04 ± 0.61
TATTAAAAGAAAATAACACACACAAAAAAAAAAAAA [CACACA_site8661] | 7.96 ± 0.61
AAAATAAGCGTGAAACGTACATATTACATTATTATA [XGTACX_site8914] | 7.51 ± 0.54
ATAATATATATATAGTGTACATTTGAATATATTTGA [XGTACX_site583] | 7.67 ± 0.45
GTATACTTAACATTCACACATATATATATATATAAA [CACACA_site4596] | 7.82 ± 0.63
AATTATTTACCTTCTTTGAAAGAACAAATGATACAA [CACACA_negctrl_site1315] | 7.82 ± 0.59
ATATATATATATATATGTACTTATAATTCTTCAATT [XGTACX_site5627] | 9.24 ± 0.4
ATATATCAACTCATATTATTTTCTTTTATTATTTAT [CACACA_negctrl_site276] | 7.56 ± 0.76
ATTTATCTATAATATACACACATATAACAGACATAT [CACACA_site6469] | 7.88 ± 0.28
TGATAGCTAGCTATATGTACATATATATATATATAT [XGTACX_site393] | 9.41 ± 0.68
CTTTCGGTTGGAGAGGTGCGCTTCTCCTTTATAATA | 9.22 ± 0.27
AAACATCATAAATATACACACATATATATATATATA [CACACA_site620] | 9.45 ± 0.57
TACACAAAATTTAAATGTACATTAAATATATGATGT [XGTACX_site2140] | 7.82 ± 0.47
CGAAACCATATGTACACACACATATATAAATATGTA [CACACA_site7082] | 7.97 ± 0.25
AAAACGTATCACAAAAGTACAGATAGTTATAATATA [XGTACX_site185] | 7.62 ± 0.56
TTTATATTTCTCTTTAGTACATATTATATTCTTTTA [XGTACX_site1618] | 7.67 ± 0.57
AATGAAAATAAATTAACACACAATTTTAATATTGTT [CACACA_site1306] | 7.34 ± 0.61
TCTTAAATATACAGTTGTACTAAACAAAAAAAAAAA [XGTACX_site2639] | 8.07 ± 0.76

Sequence | gcPBM binding intensity (ln)
TATAAAAAATGATAAAGTACTTTATACACACAAATA [XGTACX_site8486] | 8.06 ± 0.46
AAAATATACACACATATGTATATAATATTATATGTA [GTGCAC_negctrl_site496] | 7.7 ± 0.38
CTAAAACAATAAATCACACATACATAGGATAATATA [CACACA_site4247] | 7.54 ± 0.65
ATTTATAATCTGTATAGTACACATATATACATGGTT [XGTACX_site2714] | 7.75 ± 0.64
TTGGCATACAGACACACACACACACGCCCACATATA [CACACA_site6425] | 8.04 ± 0.43
TTTTTTTTTTGTAGTTGTACGAACTAGCTATTTATG [XGTACX_site692] | 7.94 ± 0.31
ATATATATATATATATGTACATATATATATTTTTTA [XGTACX_site5987] | 9.43 ± 0.24
CAAAAAAACAAACACACACACACACCCATATATATA [CACACA_site3653] | 8.64 ± 0.59
TTATTTTTTCAAGAATGTACTTACGAATTGTCGTAT [XGTACX_site1363] | 7.39 ± 0.42
ATCAATACACATATATGTACATATAATAATTATCTT [XGTACX_site662] | 8.35 ± 0.41
TAATTACCATATGGTACACACATATATATATGTATA [CACACA_site3487] | 8.01 ± 0.38
TTATATTAAACAAACACACACATATATATATATATA [CACACA_site2382] | 9.48 ± 0.67
TTAACAAATGGACACACACACACACCCAAAAAAAAA [CACACA_site4443] | 8.41 ± 0.2
TGTTACATATTATAAATACATTAACTATTATATGTA [CACACA_negctrl_site1735] | 7.46 ± 0.49
TATATATATATATATTGTACATATTGTATATATTGT [XGTACX_site3212] | 9.22 ± 0.42
TATATATATATTTATACACACATTAGTGTATCCATG [CACACA_site5609] | 9.08 ± 0.23
TTTATAAAAAATTTTTTTTTTTTTTTTTAAATATAT [CACACA_negctrl_site146] | 7.22 ± 0.41
AAATATATATATATAATACACACTAAAGTAACATAA [CACACA_site2870] | 7.83 ± 0.7
TGTCGACATGTAGGTAGTACTATTAAAAATAATGAT [XGTACX_site3849] | 7.92 ± 0.6
ATAGAAGGACATATAACACACATATATTATAAGTAT [CACACA_site5461] | 7.98 ± 0.31
GGATGATTAAGGGGGACACACGTTTATATATTTATA [CACACA_site4342] | 9.05 ± 0.35
TAAATATAAACACAAACACACACATATATATATATA [CACACA_site7978] | 9.35 ± 0.23
ATATATTATTATATATGTACTTATTTATAAATGATT [XGTACX_site7597] | 7.63 ± 0.32

Sequence | gcPBM binding intensity (ln)
AAATAGGGAATTTATGCACACAGTTAAGGGGGAAAA [CACACA_site2071] | 9.78 ± 0.11
AATAAATTAATAAGGTGTACATAAATAATTTATATA [XGTACX_site8278] | 7.92 ± 0.26
CATACTCTACATAGATGTACTCATTTAAAAAAAAAA [XGTACX_site6945] | 7.83 ± 0.23
ATTTTTTTTTTTTTTTTTTTTTTTTTCTCTCTCACT [CACACA_negctrl_site1046] | 7.64 ± 0.54
ATTCAAAAGGTTTAATGTACGTGATGTTTCACAAAT [XGTACX_site784] | 7.74 ± 0.5
TGTTATTAAAACGTGACACACAATATATATATATAT [CACACA_site3539] | 9.23 ± 0.3
TTTTTTTTTAAGCAAAGGAAATCAAAATAAAAATAT [CACACA_negctrl_site719] | 7.92 ± 0.56
TTTTTTTTTTTTTTTTGTACACATAGTAAAAATTAA [XGTACX_site2410] | 8.38 ± 0.82
TTATAAATTATATATATGACCAATAATTGTGAGCAT [CACACA_negctrl_site725] | 8.02 ± 0.57
TTTTTTTTTTATTCTACACACATATGTTTTTATATG [CACACA_site182] | 7.98 ± 0.86
TATATATATATATGTTGTACTTTTAATTTAAATGTA [XGTACX_site4239] | 9.54 ± 0.5
TAAATACCTATATGGCGTACTATTATCATAGTATAT [XGTACX_site5423] | 7.54 ± 0.56
TATTTATTATGATACTCATATTATTCTATGATTAAA [GTGCAC_negctrl_site486] | 7.49 ± 0.41
CGTAAATTTTTCTAAGTGCATGTTAATTTTTCAATT | 9.01 ± 0.67
ATTTTCAAATTAAAATGTACAAATGAAAGAAAGGGA [XGTACX_site7048] | 8.03 ± 0.69
TGAAATAAAATTTGTACACACATATATATATATATA [CACACA_site586] | 9.36 ± 0.38
GTGAATCCTAAGTGTACACATCTTACAGATATATAT [CACACA_site4836] | 8.28 ± 0.58
TTCCTTCATTGGAAAAGTACACAATATTGTCGTTTA [XGTACX_site8057] | 7.71 ± 0.37
ATATAGGTATAATACACACACTAATATGTAACTGTA [CACACA_site7011] | 7.89 ± 0.44
GCACAAATCATCAAATGTACAGAAAATGCTGTCAAT [XGTACX_site5037] | 7.67 ± 0.66
TTAAAAATAAAACAAAGTACTCAAGTTATTGTCTTT [XGTACX_site1584] | 7.51 ± 0.72
TATGATATGTATGGAAGTACGAAGAGGGATGATCAG [XGTACX_site1677] | 8.15 ± 0.73
CACGCATACAGACACACACACACACCCATATATATA [CACACA_site636] | 8.31 ± 0.66

Sequence | gcPBM binding intensity (ln)
AACTATATATATAATTCACACATGTTTTAAAATTTT [CACACA_site4971] | 7.97 ± 0.67
CTATGCATTTATAGTGCATGTAAAATATAAGATAAT [TGCATGCA_site71] | 9.86 ± 0.085
TACTATGCCCCATATAAACACACAAATAAAAAGAAT [CACACA_site8857] | 8.48 ± 0.38
TATAAACCTACATACACACATACAATAAGTAAAATG [CACACA_site1921] | 7.88 ± 0.71
ATGTATCATAAGAACTGTGTGGTTACAGACACGAAC [GTGCAC_negctrl_site416] | 8.27 ± 0.85
TTTCCTTTTTTAATATGTACACATATTATTATATCT [XGTACX_site3079] | 7.92 ± 0.31
ATATATTCTTATTGCTGTACACATATTTTCTAAAAA [XGTACX_site4851] | 8.72 ± 0.54
AACGCAGTTTAATATACACACCAAAAAAAAAAAAAG [CACACA_site5643] | 7.89 ± 0.55
TTTCTTAAATATATGCGTACTCAAAATTGTTCTACA [XGTACX_site7995] | 7.73 ± 0.33
AAAAATATAATATAATGTACACATAAACAAAAAAAA [XGTACX_site3658] | 7.92 ± 0.57
TAACCACAAAAATAAAATCAAAAAAAAAAAAAAAAA [CACACA_negctrl_site1727] | 7.99 ± 0.58
ATATATATATATTTCGCACACATAATCTTATTAAAT [CACACA_site2579] | 9.22 ± 0.31
TAAAATAAAACAAACACACACACACCGACACAAAAA [CACACA_site5993] | 8.25 ± 0.14
AACAGACATACATACACACATACATACAGACATACA [CACACA_site1942] | 7.98 ± 0.41
ACATTCTATACATACACACCCACACCCAAAAAAAAA [CACACA_site863] | 9.29 ± 0.6
TATATATCAATATACACACACACATATTTATTTATA [CACACA_site6858] | 7.82 ± 0.23
AAATATAATATACAAAGTACTTTTTCATCTTATATA [XGTACX_site8771] | 7.71 ± 0.49
AGACAATAATATAATCGTACAATAAATAAAATAAAA [XGTACX_site5231] | 7.94 ± 0.28
TGAACAAAAAAAAATTGTACTTTTTTTTTAATATTT [XGTACX_site7172] | 7.57 ± 0.32
TTTCTTCGAAATAGAACACTTGTGCAAAATAAGCAA [XGTACX_negctrl_site361] | 9.9 ± 0.23
